# Test results published in PMC12136788.
# The other results are listed elsewhere or left out.
# T1: UNK ZnF1-3 (human, UniProt Q9C0B0 31-174)
# T1 sequence: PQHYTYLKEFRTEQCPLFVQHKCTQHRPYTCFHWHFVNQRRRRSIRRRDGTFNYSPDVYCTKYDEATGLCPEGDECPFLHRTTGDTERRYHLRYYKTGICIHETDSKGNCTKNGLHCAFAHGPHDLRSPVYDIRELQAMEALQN
# B1: chr1:39494564:39494565:+_ENSG00000168653_ENST00000372967|hu_hu|hu_hu_hu_mus_True|1_88 (ssRNA)
# RNA: GGGAGUUCUACAGUCCGACGAUCAUGCAUUCGCCUCAUCGUUUUGUGCCGAAGCAAGCACUCUUCGAAGUCAUCGAACUCUAUCUUGCACUCCUUUUUCGCCCGGGUCCCACCGAUCCCGUGUGCACACUCUAUCCAUUCUUUCAACAGAGGAUUGAGCAUCA
# B2: chr7:135612270:135612271:-_ENSG00000105887_ENST00000393085|hu_mus|hu_hu_hu_mus_False|8_48 (ssRNA)
# RNA: GGGAGUUCUACAGUCCGACGAUCGUUUUUUUCUGAGAUGUUAAAUAGUACUUCAGUGGAAAACAAAACUUAACCUUUUAUUAAUGCAUGUAGUACCAAAAGCAGACAUUUUAGCUUCAUUUAUUCACUCAAAAUAUCAUUAAGCAACAGAGGAUUGAGCAUCA
# B3: chr13:103288631:103288632:+_ENSG00000134900_ENST00000376065|hu_hu|FALSE|FALSE (ssRNA)
# RNA: GGGAGUUCUACAGUCCGACGAUCCUGAACAGGAUCUCGGAGGUAGAUGCCACGGUUAUUUCCAACAGUAACAGUAAAACCUAAUUUAUUAGCAAAUGAUGUAUUCUGAACGAGGUAGUCAUAGGCUUUAUCAACCUGAAUAAUCAACAGAGGAUUGAGCAUCA
# B4: chr8:48874918:48874919:+_ENSG00000104738_ENST00000523944|hu_hu|motif|central (ssRNA)
# RNA: GGGAGUUCUACAGUCCGACGAUCAUUUACAUCUGUUCCCCAGAUCACAAGUUUUUGGCCUAGAGACUGCUCACUUGCCACGGUAUCUUCUGCUGCUGCCCCGUCAGACUGCAGAUCCACUUGCAGGCCCUUCUGUGCAGAGCCCAACAGAGGAUUGAGCAUCA
# B5: chr2:136389457:136389458:+_ENSG00000048991_ENST00000409478|hu_hu|FALSE|FALSE (ssRNA)
# RNA: GGGAGUUCUACAGUCCGACGAUCCUGAUCAACAUUGUGGUCUAAUCCAAAGUAAGCGGCUACUCUGUGUAAUAGCAUCCUAUGGUAAGAUGUCAUUGGGGGGAAUUUUUUACGUGGAGACUCAUUAUUACCAAUGAAAUCUAACAACAGAGGAUUGAGCAUCA
# B6: chr4:17845017:17845018:+_ENSG00000109805_ENST00000514176|hu_mus|hu_hu_hu_mus_False|18_58 (ssRNA)
# RNA: GGGAGUUCUACAGUCCGACGAUCGCUCUCUUAACUUGUAUCUUCAUUAAGGAACUCUGCAAGGUUAAGUUUACUUUUUCUAGUGCUAGCUGUUUUGGCUCGUCUGGGUAAUCUCAUUUCAUUUCUGGAUGGUGGUUCAUGAUCCAACAGAGGAUUGAGCAUCA
# B7: chr10:33214929:33214930:-_ENSG00000150093_ENST00000302278|hu_hu|hu_hu_hu_mus_True|18_98 (ssRNA)
# RNA: GGGAGUUCUACAGUCCGACGAUCAACAAGUUCAUUGAAUACUUCUCCUCUGUCAGUAAGACUAAGCACAUUUUUGUAGCUAAAUGGGCUGGUGCAGUUUUGUUCACUUGUACAAGGGUUCCUGAGCUUUGCUGGGGUUGUGCUCAACAGAGGAUUGAGCAUCA
# B8: chr7:54823571:54823572:-_ENSG00000132432_ENST00000352861|hu_mus|hu_hu_hu_mus_False|58_58 (ssRNA)
# RNA: GGGAGUUCUACAGUCCGACGAUCUCCCAUGAUAGCAAAUCCUAUAGCUGUAGCCAUGGCAAUCUUCUGGAAUUCUUUUCUAUCAGGUUUGGUGCAUCUUUUAACCAGCCGAAUUGAGUCCUUUACAAACUGCCGGCUGGGCUCCAACAGAGGAUUGAGCAUCA
# B9: 85003670_85003790_3496_3pUTR_ENSMUSG00000018481_ENSMUST00000018625|mouse|control|control (ssRNA)
# RNA: GGGAGUUCUACAGUCCGACGAUCUCCCCUCACCGACAUACAAACAUGCUAACAAAACAGAAUCUGACACAUACCCAUUCACUCACACCUCCAAGCACUGCCGGGAGCAGUGUAGCUAACAGCCAAGUCAGAGCCCCUGAAAAUCAACAGAGGAUUGAGCAUCA
# B10: chr11:100452292:100452293:-_ENSMUSG00000014195_ENSMUST00000014339|perfect_dup|motif|central (ssRNA)
# RNA: GGGAGUUCUACAGUCCGACGAUCCAUUUGUUUUUAUAUUGUUGGGGUCUAUCCCCAGGGCUUCUGUGUACAGUUCAUAUGCGGGUUUGUAAUUUCCUUCCUUAAAUGCUUUAUUCCCAUCUUCUUUCUUUGCUUUGAGUGCUUCAACAGAGGAUUGAGCAUCA
# B11: chr12:88580095:88580096:-_ENSMUSG00000021038_ENSMUST00000072744|mus_hu|FALSE|FALSE (ssRNA)
# RNA: GGGAGUUCUACAGUCCGACGAUCAAGGGGAUGUCUCAUCACCCAAGCAAGGUCGUCUGUGUUCAAGUGAGAGAAGAACCUUAGGGUUUUGGACAGAGUAAACUGGGGCAGCAGAGGGAAAAUGGCUGAGGAAACACAACGUCUCAACAGAGGAUUGAGCAUCA
# B12: chr7:141445308:141445309:+_ENSG00000106028_ENST00000265304|hu_hu|hu_hu_hu_mus_False|8_48 (ssRNA)
# RNA: GGGAGUUCUACAGUCCGACGAUCUAUGAUUGUUGUUGCUUGCCGCCUCACAUUGUUUUUAUCCAUGUACUCGCCAUAGUCCACUUUCCCUUCCAAAAAUAUACGAGCCCCCUUUUUCACAUACUGAUAUGCCACGUCUCUGAGCAACAGAGGAUUGAGCAUCA
# B13: chrX:140365796:140365797:-_ENSMUSG00000031285_ENSMUST00000033642|mus_mus|mus_mus_mus_hu_False|8_8 (ssRNA)
# RNA: GGGAGUUCUACAGUCCGACGAUCCUUCUCAUUACUCAGUGCCUGCAAGGUUCUGGUUCGGUAGAAGCUACAGUGGGCGCUGUGAGUGGGGCUAGGCAACCCAUUCAUCCGGGAGCCUCGCAUGUUCCUAGAUGCUUUAUCUCUCAACAGAGGAUUGAGCAUCA
# B14: chr17:61655871:61655872:+_ENSG00000136485_ENST00000310827|hu_mus|FALSE|FALSE (ssRNA)
# RNA: GGGAGUUCUACAGUCCGACGAUCGGUAGGGUACGGGUGGUCAAAGGUGUUUCGGCAAAUAAACUCUGAACUCUCCUCAUCUAAACCAACAAGCUGAACCUUGUUGUUGUACUCUUCCACGAAGCUGCCCAGCGCCAGGCGAAACAACAGAGGAUUGAGCAUCA
# B15: 52792555_52792675_286_CDS_ENSMUSG00000020954_ENSMUST00000169503|mouse|control|control (ssRNA)
# RNA: GGGAGUUCUACAGUCCGACGAUCGGCCGGAGGACCCCCGCCGCCCGGCGCUCCGUUCGCUCCCGGCGGCAGGCUCAGGUUCCCCCCGGGUCCCUGCUGCGGCCGGGGAGGGGCUGCCAUCCCCUGGCCGCCGCCGCCGCCUCCCAACAGAGGAUUGAGCAUCA
# B16: chrX:71549400:71549401:+_ENSMUSG00000019087_ENSMUST00000019231|mus_hu|mus_mus_mus_hu_False|38_78 (ssRNA)
# RNA: GGGAGUUCUACAGUCCGACGAUCGCAGUAGGAAGAGGGAAGCUCUUCAGUCCAGUGGUCACAAAACUGGGAAAGCAACAACACGGACACCGUCCCACCUCAAUUCCCCCCACUGGCACAGGGUCACACAAUCUGGGUCAAAGACAACAGAGGAUUGAGCAUCA
# B17: 40207750_40207870_2679_CDS_ENSMUSG00000036822_ENSMUST00000042575|mouse|control|control (ssRNA)
# RNA: GGGAGUUCUACAGUCCGACGAUCCCUCCUCUUGUGUUUUGUCUCUCUGUCUGAUGAUCUGCUAUCUGAAAAGCUGUCACUCUCAUUUUUAUAACUGCCAUCCAAUUUUGAUUUUUGGUAAUGACUGUCCUUCCCUUUGGAAGUCAACAGAGGAUUGAGCAUCA
# B18: chr10:86154994:86154995:-_ENSMUSG00000020048_ENSMUST00000020238|mus_mus|motif|central (ssRNA)
# RNA: GGGAGUUCUACAGUCCGACGAUCCGCCUUGGUGUCUGGUAGAAGAUAUCCUGACCGAAGUGUUGCCGUUUCAAACAAAACGGCAGCAAGAUCCAUGACUGUCUUGUCAUCUUCAUCUUCCUUAAUCCGCCGCAACAUGUCUCUCAACAGAGGAUUGAGCAUCA
# B19: 88792706_88792826_418_ncRNA_ENSMUSG00000033152_ENSMUST00000141401|mouse|control|control (ssRNA)
# RNA: GGGAGUUCUACAGUCCGACGAUCCGGGAGGGGCGCGGGGCCGUGGCGUCGGGCAGUCUCGCGCCCGUGGCCCGGCGCUCACAGGUGAGUGUCCUCCUCGAACACGUCCGAGUCCUCAGGGUCGCGUUUGCUGCCCAUGAGCGCCAACAGAGGAUUGAGCAUCA
# B20: chr14:102359341:102359342:+_ENSG00000078304_ENST00000445439|hu_hu|motif|central (ssRNA)
# RNA: GGGAGUUCUACAGUCCGACGAUCUUUUAGUGGUAAGGCAAAUCCAUUAAUUAUACUUCCCAAUAUUUCCAGUAACUCUGCGGUGCCAUUAUGAUGCUCUGUUUCAUAAAUAAACCUAUAAAAUAUAUUAUUUAUCUGUUUUCUCAACAGAGGAUUGAGCAUCA
# B21: chr13:108516651:108516652:-_ENSMUSG00000032846_ENSMUST00000105097|mus_hu|FALSE|FALSE (ssRNA)
# RNA: GGGAGUUCUACAGUCCGACGAUCAUCAUGCGCCAUUAAGAAGGUCUCUCGGGCUUUGCUGAGGAACUCUAUAAACUCACUAUAGUGCCGAGGACUGAUGUGUGUGAGCCGUGAGUGCGUUGUGUUGAUGUAGGCCCCGAUCGUCAACAGAGGAUUGAGCAUCA
# B22: chr2:91460361:91460362:+_ENSMUSG00000040549_ENSMUST00000099716|mus_hu|motif|central (ssRNA)
# RNA: GGGAGUUCUACAGUCCGACGAUCAUACACUAGGCCUGCUGAGGCCAUUUUAAACUAUGAGGACUUCUAGUUUAGUAAACGGAAGCUGCAGGGUGCCGGGGGAGUGGGGCAGCUUCAUUUGCGACUGCUCUUUAUUCUCUCCAGCAACAGAGGAUUGAGCAUCA
# Molecular target: T1, UNK ZnF1-3
# Assay: nsRBNS (natural sequence RNA bind-n-seq); RBNS binding buffer (assumed for nsRBNS): 25 mM Tris pH 7.5, 150 mM KCl, 3 mM MgCl2, 0.01% Triton X-100, 500 ug/ml BSA, 20 U/ml SUPERase-In, 4 C; UNK is unkempt and MSI1 is Musashi-1; names of the RNAs are library labels; protein concentration not given here; high values mean tight binding
row,Binder,binding signal
1,B1,0.798 enrichment R
2,B2,0.799 enrichment R
3,B3,1.03 enrichment R
4,B4,0.828 enrichment R
5,B5,0.968 enrichment R
6,B6,0.391 enrichment R
7,B7,0.902 enrichment R
8,B8,0.972 enrichment R
9,B9,1.54 enrichment R
10,B10,0.27 enrichment R
11,B11,1.4 enrichment R
12,B12,0.805 enrichment R
13,B13,0.664 enrichment R
14,B14,0.971 enrichment R
15,B15,0 enrichment R
16,B16,1.9 enrichment R
17,B17,0.437 enrichment R
18,B18,0.493 enrichment R
19,B19,0.489 enrichment R
20,B20,0.358 enrichment R
21,B21,1.13 enrichment R
22,B22,0.451 enrichment R
